The target in the assay is S267E. The assay is described as follows: Biacore SPR.

This is an account of results in patent US20230272114A1 (published 2023).

B1: V158 FcγRIIIa (receptor)
chain: not shown
As for B1, the Kd came out at 690 nM.
